From article PMC7819943, “Rice protein-binding microarrays: a tool to detect cis-acting elements near promoter regions in rice” come the findings set out here.

Some of the results follow.

The target of the assay is T1, OsWOX13 (Oryza sativa, UniProt Q5QMM3 1-267).
T1 sequence: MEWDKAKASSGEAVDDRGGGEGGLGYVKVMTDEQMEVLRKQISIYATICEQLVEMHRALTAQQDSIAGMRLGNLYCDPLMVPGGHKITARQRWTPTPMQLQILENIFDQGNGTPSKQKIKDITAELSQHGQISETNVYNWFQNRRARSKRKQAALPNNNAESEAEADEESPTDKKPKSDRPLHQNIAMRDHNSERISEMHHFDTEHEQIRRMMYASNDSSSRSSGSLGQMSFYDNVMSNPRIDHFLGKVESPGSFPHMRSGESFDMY
Description: protein-binding microarray (RPBM); PBS, 2% BSA, 51.3 ng/ul salmon testes DNA, 50 uM zinc acetate, 200 nM TF, 25 C, 1 h; high values mean tight binding. The following applies: protein: recombinant; tags: N-terminal polyhistidine and DsRed monomer fusion (pET32a); label: CyDye5-dUTP incorporated in the synthesized complementary strand; 3' TTTTT single-stranded linker to array surface; dsDNA, one strand shown. In short, it runs like this: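 Binding signal is reported as fluorescence intensity per feature (arbitrary units) from an Axon 4000B scanner. Incubation used 200 nM of each Ni–NTA-purified, N-terminally polyhistidine- and DsRed-fused transcription factor from E. coli BL21-CodonPlus on a double-stranded custom Agilent array for 1 h at 25 °C, with 50 µM zinc acetate in the buffer, followed by washing.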
“CTCTTAATCACTATAATATTAAAATATGGTTGCACGAGGACGGAGTCACCTAGTGCAG”: the binding signal is 5840 fluorescence intensity (a.u.).
The value for “CAATCTTGATTGTTGGGCAGTTGGGCTTAGTTGATGTATGCGGAGTCACCTAGTGCAG” was 33100 fluorescence intensity (a.u.); that for “AATAAAATAATCAAACGTTACGTGAAAATTTAACGATATCCGGAGTCACCTAGTGCAG” was 3410 fluorescence intensity (a.u.).
As for “CCAAATGATAGCACCATCATTCTCTGTCAGTGTGGACCTTCGGAGTCACCTAGTGCAG”, the binding signal is 6390 fluorescence intensity (a.u.).
For the sequence “GTGTATGATAGATTGATGTGATAGAAAAGGACTGAAGTTTCGGAGTCACCTAGTGCAG”, the binding signal is 24600 fluorescence intensity (a.u.).
The result for “AATTTTAATTAATCTCGTATTGGATTCTTATATGGACTCTCGGAGTCACCTAGTGCAG” reads 9780 fluorescence intensity (a.u.); that for “GGAAGAATTGATTGATTAAAGATATATATCGAATATCTGCCGGAGTCACCTAGTGCAG”, 40400 fluorescence intensity (a.u.); that for “TCGATCTCCATTAATTATCCAACGACGACACGACGACGCACGGAGTCACCTAGTGCAG”, 5720 fluorescence intensity (a.u.).
Regarding “ACAATAATAAAATTAAAATAACATTTACTTGTTGCAATGTCGGAGTCACCTAGTGCAG”, the binding signal was 3580 fluorescence intensity (a.u.).
The result for “CAGATGAATCAAATTGACCATGGTGGTGGTTGTGGTTGGGCGGAGTCACCTAGTGCAG” reads 9060 fluorescence intensity (a.u.).
For “AATAGATTAATATGATTGTTTTAAAGCAACTTTCCTATTGCGGAGTCACCTAGTGCAG”, the binding signal was 43700 fluorescence intensity (a.u.).
The result for “TAATTAACCTCTACCGTAATTGGGTAACTTAATCACGACGCGGAGTCACCTAGTGCAG” reads 5120 fluorescence intensity (a.u.).
For the sequence “TTGACATCATCATTGACGTGATAGATATAGTATATTAGACCGGAGTCACCTAGTGCAG”, the binding signal is 17000 fluorescence intensity (a.u.).
The value for “ATAAGGTGTACTTAATTTGTTCAATTGAAGAAAGACATGTCGGAGTCACCTAGTGCAG” was 5090 fluorescence intensity (a.u.); that for “GTGCAGTCTTCCTCTCTTAATTACTCATCCTGTACGAGCTCGGAGTCACCTAGTGCAG” was 4200 fluorescence intensity (a.u.); that for “ACGATTTTAATTGCATTCCTGCCTTCTTCGCCACATTATTCGGAGTCACCTAGTGCAG” was 10400 fluorescence intensity (a.u.).
The value for “AAATTAGCAAATACTTAATTAATTATGCGCTAATGAACCGCGGAGTCACCTAGTGCAG” was 16800 fluorescence intensity (a.u.); that for “TCCAAATTTGTTTTGAACGGATAGTAGCATTATCATATTCCGGAGTCACCTAGTGCAG” was 3750 fluorescence intensity (a.u.).
As to “TGATTTGACTGATTTATCATCTGAAATATCTGAATGAATACGGAGTCACCTAGTGCAG”, the binding signal was 27200 fluorescence intensity (a.u.).
Take “ATCCGTTTGATTTTGAAATCATAATGACAATAAAGAAGGGCGGAGTCACCTAGTGCAG”: the binding signal was 7230 fluorescence intensity (a.u.).
The result for “CGTGTGGATTAACTATAAATTTAGACACATATATGAAGCACGGAGTCACCTAGTGCAG” reads 6530 fluorescence intensity (a.u.).
With “TTGAATGGTAAATGATTGGTCGATCGCGCAATGTCGAAGACGGAGTCACCTAGTGCAG”, the binding signal is 27400 fluorescence intensity (a.u.).
The result for “CCTAAATGTGTCTATTATGGTCAGACACTCTCTCACGGCACGGAGTCACCTAGTGCAG” reads 9270 fluorescence intensity (a.u.); that for “TTAATTACCCATGACAGTTTGCTTACTTAAAGCCTGCATGCGGAGTCACCTAGTGCAG”, 13200 fluorescence intensity (a.u.); that for “TTTAATTAACTTTTATCCCCAATTATATCCCCTCCTTTTACGGAGTCACCTAGTGCAG”, 22700 fluorescence intensity (a.u.).
The value for “ACTTTCGATGTACGCTCTGATTGATATTTCTCCAATATCTCGGAGTCACCTAGTGCAG” was 19600 fluorescence intensity (a.u.).
The value for “CTAAACTCTAAATCATGTCATCGTAATTGGCCGGCGGAGGCGGAGTCACCTAGTGCAG” was 41900 fluorescence intensity (a.u.); that for “TAAGCACGTAATTATTACAATGGGTCGTTTATTGACTATTCGGAGTCACCTAGTGCAG” was 3480 fluorescence intensity (a.u.).
As to “TTTAATTCTATCTAAACTTTTAATTTTAACGTGAGCTGAACGGAGTCACCTAGTGCAG”, the binding signal is 5690 fluorescence intensity (a.u.).
The value for “GGTGGCTAGATAGACAGACATGTTGCCCATCAACTTAAGACGGAGTCACCTAGTGCAG” was 4900 fluorescence intensity (a.u.); that for “TTTCTTGATTGTATGTTTGCTGCGTTAAGGGCTTCGGAGACGGAGTCACCTAGTGCAG” was 30900 fluorescence intensity (a.u.); that for “ACCCTAACTGATCGATCCACCGCTAGTTACTGTAGTGGGACGGAGTCACCTAGTGCAG” was 11600 fluorescence intensity (a.u.).
For the sequence “AAATTAACTTAATTAATAAGTTGAGCAGCCTGTAGGCCTTCGGAGTCACCTAGTGCAG”, the binding signal is 17500 fluorescence intensity (a.u.).
The result for “TTAGCCTAATTAATCCATAATTAGCAAATGTTTATTGTAGCGGAGTCACCTAGTGCAG” reads 30600 fluorescence intensity (a.u.); that for “GGGAAAATTTAGAAGTCCTGATAGGTAAAGACTTTAAGTCCGGAGTCACCTAGTGCAG”, 6480 fluorescence intensity (a.u.); that for “TAACAAAATTATTATATGATGATCAATTTGAGAACGAGAGCGGAGTCACCTAGTGCAG”, 8570 fluorescence intensity (a.u.).
For “GGAAATTAAATTCGATAACTGTATCTCACGAGATAGGTAGCGGAGTCACCTAGTGCAG”, the binding signal was 23400 fluorescence intensity (a.u.).
The result for “TTGAACAAATAATTACAGTAATGTGAAATTTACTCAATGGCGGAGTCACCTAGTGCAG” reads 8450 fluorescence intensity (a.u.); that for “TTGATTATTTGATCACACGAAAATAAATGCAAGCCCCATCCGGAGTCACCTAGTGCAG”, 21900 fluorescence intensity (a.u.); that for “CTCAATTGGCCACAAATTATGAAATTGGTTAATGCACAACCGGAGTCACCTAGTGCAG”, 30700 fluorescence intensity (a.u.).
The value for “TCCGTTCTAAATTAAATCAATCTAGAATAGAATAAGACATCGGAGTCACCTAGTGCAG” was 14700 fluorescence intensity (a.u.); that for “ATCCAATATTACATACATAACTAATTATATGTTTGGATGTCGGAGTCACCTAGTGCAG” was 4440 fluorescence intensity (a.u.).
